Laboratory results reported in US6646113 (University of Pennsylvania, dated 2003).

Key:
[1] = molecular target: T1, SIP1 (human), in vitro translated and 35S-labeled (human, UniProt O14893 1-280, limits assumed); assay: GST pull-down, 35S IVT protein
T1 construct: Made in rabbit reticulocyte lysate; also called full-length SIP1; Gemin2
T1 sequence: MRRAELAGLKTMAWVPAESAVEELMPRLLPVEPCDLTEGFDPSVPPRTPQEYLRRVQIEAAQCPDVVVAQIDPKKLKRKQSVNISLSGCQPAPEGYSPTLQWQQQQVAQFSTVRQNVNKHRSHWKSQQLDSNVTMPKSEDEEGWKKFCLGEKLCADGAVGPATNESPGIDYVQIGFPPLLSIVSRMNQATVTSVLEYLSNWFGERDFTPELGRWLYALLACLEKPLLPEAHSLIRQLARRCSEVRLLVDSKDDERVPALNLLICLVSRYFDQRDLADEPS

myc-tagged SMNY272C = molecular target: T2, myc-tagged SMNY272C (human, UniProt Q16637); assay: GST pull-down, 35S IVT protein
T2 construct: In vitro translated (35S) or expressed in 293T cells

[2] = molecular target: MBP-SMN wild-type fusion, in vitro translated (human, UniProt Q16637); assay: GST pull-down, 35S IVT protein (FIG. 41)
[3] = molecular target: T3, SMN (human), in vitro translated and 35S-labeled (human, UniProt Q16637); assay: GST beads preincubated with His-SMN, then 35S IVT protein
T3 construct: also called 35[S]SMN

- binding result [1]: no binding (tested: 200 mM NaCl)
- binding result (myc-tagged SMNY272C): no binding
- binding result [2]: no binding
- binding result [3]: no binding
B1: GST alone (other)
chain: not shown
notes: Negative control on glutathione-Sepharose; also called glutathione S-transferase
